Legend:
[1] = biological target: human PD-L1 on cells (human) (UniProt Q9NZQ7); experiment: cell-based or functional assay
[2] = biological target: human PD-L1 on cells (human) (UniProt Q9NZQ7); experiment: flow cytometry, OVCAR3/hPD-L1 cells
[3] = biological target: human PD-L1 on cells (human) (UniProt Q9NZQ7); experiment: flow cytometry, OVCAR3 cells (low endogenous PD-L1)
[4] = biological target: human PD-L1 on cells (human) (UniProt Q9NZQ7); experiment: flow cytometry, Jurkat/NFkB-Luc/h41BB cells (potential low endogenous PD-L1)

Sequence of UniProt Q9NZQ7 (Q9NZQ7 19-290): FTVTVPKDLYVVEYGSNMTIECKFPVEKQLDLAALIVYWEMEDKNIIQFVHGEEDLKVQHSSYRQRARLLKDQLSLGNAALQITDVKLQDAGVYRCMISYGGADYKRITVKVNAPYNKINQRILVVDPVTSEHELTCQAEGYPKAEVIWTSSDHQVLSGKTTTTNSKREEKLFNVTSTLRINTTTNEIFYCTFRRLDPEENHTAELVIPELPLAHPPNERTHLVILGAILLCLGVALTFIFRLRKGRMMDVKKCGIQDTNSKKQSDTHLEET

B1: Control 2 (bispecific antibody, part only; not given: unrelated arm VH; constant regions, V domains shown, not shown: another chain or arm of the molecule; a dimerising Fc or GST; small tags and cut ends)
VH: EVQLVESGGGLVQPGRSLRLSCAASGFTFDDYALHWVRQAPGKGLEWVSGISWTGGTIDYADSVKGRFTISRDNAKNSLYLQMSSLRTEDTAIYYCTRDIRGNWKYGGWFDPWGQGTLVTVSS
VL: [sequence of about 100 residues not given]
AP-1 luciferase EC50, Jurkat/AP1-luc/hPD1 + WSU-DLCL2/hPD-L1 + CD20xCD3 [1]: 0.874 nM
AP-1 luciferase MAX (RLU), Jurkat/AP1-luc/hPD1 + WSU-DLCL2/hPD-L1 + CD20xCD3 [1]: 1.1e+06 RLU
EC50 [2]: 3.4 nM
Fold change (max MFI over secondary antibody alone) [2]: 2410 fold
Max [gMFI] [2]: 9.1e+06 gMFI
Fold change (max MFI over secondary antibody alone) [3]: 7.4 fold
Max [gMFI] [3]: 17000 gMFI
Fold change (max MFI over secondary antibody alone) [4]: 8.4 fold
Max [gMFI] [4]: 19000 gMFI
